Measured values as given in PubChem BioAssay AID493208 (National Center for Advancing Translational Sciences (NCATS), 2011).
Among all 44,000 compounds or so, about 340 (0.77%) were called active. Another 5% or so got no clear call; they are omitted. Calls come from the whole dose curve; as a rule, active = well fitted inhibition curve with a large enough effect; inconclusive = small, poorly fitted or top-dose-only effect; inactive = flat fitted curve, though single readings scatter. The list shows a part of the results.

Assay: Acumen qHTS Assay for Inhibitors of the mTORC1 Signaling Pathway in MEF (Tsc2-/-, p53-/-) Cells: Sytravon;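 note: plate controls were DMSO for no effect and rapamycin for full effect; nearly all actives have a fitted effect of over 50% in size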
Settings: phospho-rpS6 immunofluorescence/PI, 24 h; series mostly up to 38.3 µM; activity change, negative = inhibition: at the top concentration
Outline: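 Tsc2-/-, p53-/- mouse embryonic fibroblasts (empty-vector line) exposed to compound 24 hrs at 37 C, fixed, immunostained for phospho-rpS6 and counterstained with propidium iodide. Acumen laser scanning gives % positive cells from Alexa 488/PI ratio, thresholded using 7.5 nM rapamycin; PI count gives viability.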

Activity change, negative = inhibition, inactive:
CCOc1cccc2cc(-c3cn4c(n3)sc3ccccc34)c(=O)oc12 -1.52%
Cc1ccc(CNC(=O)CSc2nnc(C)c3c(C)n(-c4ccccc4)nc23)cc1 -13.2%
CC1CCN(S(=O)(=O)c2ccc3c(ccc(=O)n3CC(=O)NCc3ccccc3Cl)c2)CC1 0.4%
COc1ccc(NC(=O)CSC2=Nc3ccccc3N=C(c3ccc(F)cc3)C2)cc1OC -0.0481%
CCN(C(=O)CCNC(=O)Cn1cnc2ccccc2c1=O)c1cc(OC)ccc1OC 4.49%
Cc1ccc2c(c1)c1c(c(=O)n(-c3ccccc3C)c(=O)n1CC(=O)c1ccc(Cl)cc1)n2C 0.441%
O=S(=O)(c1ccc(Cl)cc1)c1nnn2c1nc(NC1CCCCC1)c1sccc12 -3.13%
CCC1CN(C(=O)N2CCC(C(=O)NCc3cc(OC)c(OC)c(OC)c3)CC2)c2ccccc2O1 (stereo unspecified) 5.08%
CN(C)c1ccc(NC(=O)Cn2nnc3sc4c(c3c2=O)CCC(C(C)(C)C)C4)cc1 (stereo unspecified) 2.07%
CCSc1ncc(Cl)c(C(=O)Nc2nc3ccc(Cl)cc3s2)n1 -3.57%
CN(C)c1ccc(CNC(=O)CN2C(=O)CSc3ccc(S(=O)(=O)N4CCCC4)cc32)cc1 0.377%
Cc1cccc(NC(=O)c2oc3ccccc3c2NC(=O)c2cc(=O)c3ccc(C)cc3o2)c1 4.21%
Cc1cc(NC(=O)CCc2nc3cccnc3n2Cc2cccs2)ccc1Br -13.3%
Cc1ccc(-n2c(=O)c3c(cnn3C)n(Cc3ccc(Cl)cc3)c2=O)cc1 -1.71%
CCc1ccc(NC(=O)N(Cc2c[nH]c3ccccc23)C2CCCCC2)cc1 -0.696%
CCOc1ccc(CNC(=O)c2ccc3[nH]c(C)c(C)c3c2)cc1OC -0.393%
CCOc1cc(C(=O)Nc2ccc(NC(=O)c3cc4ccccc4o3)c(OC)c2)cc(OCC)c1OCC 21.6%
Cc1ccc(NC(=O)Nc2c[nH]c(=O)[nH]c2=O)c(Cl)c1 3.97%
CCOc1ccc2nc(N3CCCC(C(=O)Nc4cc(C)ccc4C)C3)sc2c1 (stereo unspecified) -5.91%
Cc1ccc(NS(=O)(=O)c2cc(-c3cc(C)no3)ccc2C)c(Cl)c1 -1.01%
CCc1ccccc1NC(=O)CSc1nnc(-c2ccc(OC)cc2)s1 -6.99%
CC(=O)Nc1ccc(NC(=O)C2CCN(S(=O)(=O)c3ccc4c(c3)CCCC(=O)N4)CC2)cc1 0.931%
O=c1c2ccccc2n(Cc2c(F)cccc2Cl)c(=O)n1CCc1ccccc1 -19.2%
Cc1cc2c(cc3c(SCc4ccc(Cl)cc4)nncn32)o1 1.07%
COc1ccc(C)cc1NC(=O)c1cnc2ccc(C)cn2c1=O -3.74%
COCCNC(=O)CCCn1c(SCC(=O)c2ccc(Br)cc2)nc2c(sc3ccccc32)c1=O -3.89%
Cc1ccn2c(=O)cc(COc3ccc(NC(=O)COc4ccc(C)c(C)c4)cc3)nc2c1 3.35%
CCOc1cc(C2c3c(oc4ccccc4c3=O)C(=O)N2Cc2ccc(OC)cc2)ccc1O (stereo unspecified) -10.3%
Cc1cccc(Nc2c(-c3ccsc3)nc3nc(C)cc(C)n23)c1 2.87%
O=C(CCCCn1c(=O)c2ccccc2n(Cc2cccc(F)c2)c1=O)NCc1ccc2c(c1)OCO2 -29.5%
O=C(O)c1ccc2nc(-c3cc4cc(Cl)ccc4oc3=O)[nH]c2c1 -4.34%
Cc1ccc(C(=O)c2oc3ccccc3c2NC(=O)Cc2coc3ccc(C)cc23)cc1 3.45%
CCOC(=O)c1c(C)[nH]c(C)c1S(=O)(=O)N(C)CC(=O)NCc1ccc(Cl)cc1 -8.65%
Cc1ccc(-c2nc3c4ccccc4n(CC(=O)NCc4ccc(F)cc4)c(=O)n3n2)cc1 0.711%
CCc1nn(CC(=O)NCCCN(CC)CC)c(=O)c2cc3occc3n12 -2.82%
COc1cccc(CNC(=O)CN2C(=O)N(c3ccc(C)cc3C)S(=O)(=O)c3ccccc32)c1OC -2.91%
Cn1c(SCC(=O)Nc2nc3ccccc3s2)ncc(C(=O)Nc2ccccc2)c1=O -3.4%
COc1ccc(C)cc1-n1cnc2cc(C(=O)NC3CCCCCC3)ccc21 -13.5%
O=C1COc2cc(S(=O)(=O)CCC(=O)NC3CCCCC3)c(Cl)cc2N1 -3.24%
Cc1ccc2onc(CNC(=O)NCc3ccc(Cl)cc3)c2c1 3.74%
CCOc1ccc(CCNC(=O)CCCc2nnc3n(CC)c(=O)c4sccc4n23)cc1 1.96%
CCSc1ncc(Cl)c(C(=O)Nc2c(C(=O)Nc3ccccc3)oc3ccccc23)n1 2.49%
O=C(CSc1nccn1-c1cccc(Cl)c1)Nc1cccc2ccccc12 -5.34%
COc1cccc(C(=O)Nc2cccc(-c3nc4ncccn4c3C)c2)c1 -17.8%
O=C(O)c1c(-c2ccccc2)oc2ccc(OCc3c(F)cccc3Cl)cc12 2.54%
COc1ccc(-c2nc3cc(C)ccn3c2NC(=O)c2cccc(F)c2)cc1 1.63%
COc1ccc(CCNC(=O)C2CCN(Cc3nc(-c4ccc(OC)c(OC)c4)oc3C)CC2)cc1OC -12.1%
Cc1ccc(/C=C(\C#N)C(=O)Nc2cccc(Cl)c2)o1 2.29%
O=C(NCCn1cc(SCc2ccc(Br)cc2)c2ccccc21)c1cccs1 0.157%
CCC1Oc2ccccc2N(CC(=O)NCc2cc(OC)ccc2OC)C1=O (stereo unspecified) 6%
CCCC(=O)N1CCc2cc(OC)c(OC)cc2C1COc1ccc(C(=O)OC)cc1 (stereo unspecified) -8.37%
CCN(CC)C(=O)Cn1c(=O)n(CC2CCC(C(=O)NC)CC2)c(=O)c2sccc21 (stereo unspecified) -2.49%
O=C(CSc1nc(-c2ccccc2F)nc2cc(=O)[nH]n12)Nc1cccc(C(F)(F)F)c1 -3.94%
CCOc1ccccc1-c1nc(Cn2c(=O)cc(C)c3c(C)nn(-c4ccccc4)c32)c(C)o1 -2.89%
Cc1cc(C)cc(OCCCn2c(-c3ccc(Cl)cc3)nc3ccccc3c2=O)c1 9.86%
COC(=O)c1sc(-c2ccccc2)cc1NC(=O)Nc1ccc(F)cc1 -1.49%
COc1ccc(C(CC(=O)NCc2ccc(Cl)cc2)N2Cc3ccccc3C2=O)cc1OC (stereo unspecified) -5.28%
COc1ccc(-c2cn3c(n2)sc2cc(C(=O)Nc4ccc(C)c(Cl)c4)ccc23)cc1 -1.74%
CCOc1ccc(-c2nnc(SCC(=O)Nc3ccc(C)cc3C)o2)cc1 -6.32%
COC(=O)c1ccc(NC(=O)n2ncc3c(C)cccc32)cc1 -15.7%
CCOC(=O)c1[nH]c2c(c1Cc1ccccc1C)C(=O)CC(c1ccccc1)C2 (stereo unspecified) -0.529%
CCc1ccc(NC(=O)c2cnn(-c3c(C)cccc3C)c2C2CCN(C(=O)OC(C)(C)C)CC2)cc1 -9.71%
Cc1c(C(=O)N2CCCCCC2)c(S(=O)(=O)Nc2cccc(C#N)c2)c(C)n1C -0.934%
Cc1cc(=O)[nH]c2nnc(SCc3ccccc3F)n12 1.98%
CC1(C)N=C(SCc2ccc(Cl)cc2)c2ccccc2N1 -11.1%
O=C(NCCc1ccccc1)C(=O)NCC(c1cccs1)S(=O)(=O)c1cccs1 (stereo unspecified) -10.8%
Cc1ccc(S(=O)(=O)N2CCN(Cc3cc(=O)n4nc(-c5ccccc5Cl)sc4n3)CC2)cc1 6.65%
Cn1c(=O)cc(SCC(=O)NCc2ccc(F)cc2)c2cc(Cl)ccc21 0.664%
CCOC(=O)c1c(C)[nH]c(C)c1S(=O)(=O)N1CCC(C(=O)Nc2ccccc2CC)CC1 -5.76%
CCc1ccc(-n2nc(CO)c(C(=O)NCc3ccccc3Cl)n2)cc1 2.23%
Cn1c(=O)c(=O)n(C)c2cc(NS(=O)(=O)c3ccc(Br)cc3)c(Cl)cc21 4.65%
COc1ccc(NC(=O)N2CCCn3nc(C)cc32)cc1OC -3.24%
CCCCNC(=O)CSc1nc2cc3c(cc2c(=O)n1Cc1ccc(C(=O)NCCc2ccc(OC)c(OC)c2)cc1)OCO3 0.724%
CCn1c(C(=O)NCc2ccccc2Cl)cc2sc(Cl)cc21 -7.68%
CC(Oc1ccccc1)C(=O)Nc1ccc(C(=O)OCc2cc(=O)n3nc(C4CC4)sc3n2)cc1 (stereo unspecified) 0.77%
O=C(CCC(=O)N1Cc2ccccc2Oc2ncccc21)NCc1cccc(Cl)c1 0.931%
Cc1cc2[nH]c(=O)c(=O)[nH]c2cc1S(=O)(=O)N1CCN(c2ccccc2)CC1 0.531%
COc1ccc(Cc2nc3ccccc3n2Cc2ccccc2C)cc1 -7.89%
O=C(NCc1cccc(Cl)c1)c1ccc(NC(=O)N2CCSc3ccccc32)cc1 -1.32%
COc1ccc(-c2cc3ccc(O)c(CN4CCCC(C)C4)c3oc2=O)cc1OC (stereo unspecified) -3.65%
Cc1ccc(Cc2c(C)nc3nc(SCC(=O)NCCC(C)C)nn3c2C)cc1 4.06%
COc1ccc(NC(=O)Cn2c(=O)n(-c3ccc(C)cc3)c(=O)c3c2c2cc(C)ccc2n3C)cc1 -8.25%
Cc1nn(C)c(C)c1S(=O)(=O)N(CC(=O)Nc1ccc(F)cc1F)c1ccc(C(C)C)cc1 -1.7%
CC1CCN(c2nc3ccc(C(=O)NC(C)C)cc3s2)CC1 1.32%
Cc1ccc(CN2C(=O)SC(Nc3ccc(Cl)cc3)C2=O)cc1 (stereo unspecified) 1.15%
O=C(Nc1onc2c1CCCC2)c1ccccc1 1.08%
O=C(CN1C(=O)CCn2nc(-c3ccccc3)cc21)NCc1ccccc1 -5.36%
COc1cccc(CNC(=O)C(=O)NCC(c2ccco2)S(=O)(=O)c2ccccc2)c1 (stereo unspecified) -0.379%
COc1ccccc1CNC(=O)c1cnc2sc(N3CCCCC3)nn2c1=O -2.89%
COc1cccc(C2C(C(=O)Nc3ccccc3OC)=C(C)Nc3nc(-c4ccco4)nn32)c1 (stereo unspecified) -12.6%
COc1ccc(-n2nc(C(=O)NCCc3ccc(OC)c(OC)c3)c3c4ccccc4n(C)c3c2=O)cc1 -11.8%
CCC(Sc1nnc2c3ccccc3n(CC)c2n1)C(=O)Nc1ccc(NC(C)=O)cc1 (stereo unspecified) 4.05%
Cc1ccccc1-c1nc(CS(=O)(=O)CC(=O)NCCCc2ccccc2)c(C)o1 -6.31%
CCCOc1cccc(C2c3c(oc4ccc(F)cc4c3=O)C(=O)N2CCc2ccc(OC)cc2)c1 (stereo unspecified) 5.23%
COc1cccc(CNC(=O)c2sc3ncccc3c2-n2c(C)ccc2C)c1OC -3.27%
COc1ccc(-c2noc(CSc3nc4ccc(C)cc4[nH]3)n2)cc1 2.06%
